The list shows a part of the results. Single values are uncertain, as repeats are few or missing.
Tests used:
Experiment in all cases: cell count relative to DMSO control; melanoma cells; higher = more viable cells
Conditions in all cases: library dose: low library concentration; 72 h
MZ2-MEL = test system: MZ2-MEL
MeWo = test system: MeWo
RPMI7951 = test system: RPMI7951
RVH-421 = test system: RVH-421
SkMel28 = test system: SkMel28
SkMel2 = test system: SkMel2
SkMel30 = test system: SkMel30
UACC62 = test system: UACC62
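Further: cell number obtained by counting DAPI-stained nuclei in high-throughput microscope images with image analysis software, screen run in 1,536-well plates.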

Compound | cell count (MZ2-MEL) [%] | cell count (MeWo) [%] | cell count (RPMI7951) [%] | cell count (RVH-421) [%] | cell count (SkMel28) [%] | cell count (SkMel2) [%] | cell count (SkMel30) [%] | cell count (UACC62) [%]
CC[C@]1(O)C[C@H]2CN(CCc3c([nH]c4ccccc34)[C@@](C(=O)OC)(c3cc4c(cc3OC)N(C=O)[C@H]3[C@@](O)(C(=O)OC)[C@H](OC(C)=O)[C@]5(CC)C=CCN6CC[C@]43[C@@H]65)C2)C1 [vincristine] + C#Cc1cccc(Nc2ncnc3cc(OCCOC)c(OCCOC)cc23)c1 [erlotinib] (first compound 0.0001 µM, partner dose 0.8 µM) | 57.5 | 52.8 | 46.5 | 76.8 | 56.2 | 53.7 | 52.3 | 34.3
N#CC[C@H](C1CCCC1)n1cc(-c2ncnc3[nH]ccc23)cn1 [ruxolitinib] + C=C(c1ccc(C(=O)O)cc1)c1cc2c(cc1C)C(C)(C)CCC2(C)C [Bexarotene] (first compound 1 µM, partner dose 2 µM) | 96.8 | 93.1 | 75 | 96.1 | 89.2 | 97.1 | 108 | 97.5
CC[C@]1(O)C[C@H]2CN(CCc3c([nH]c4ccccc34)[C@@](C(=O)OC)(c3cc4c(cc3OC)N(C=O)[C@H]3[C@@](O)(C(=O)OC)[C@H](OC(C)=O)[C@]5(CC)C=CCN6CC[C@]43[C@@H]65)C2)C1 [vincristine] + C[C@]1(O)C[C@@H](c2nc(-c3ccc4ccc(-c5ccccc5)nc4c3)c3c(N)nccn32)C1 [OSI906] (first compound 0.0001 µM, partner dose 0.4 µM) | 106 | 95.2 | 94.4 | 101 | 104 | 96.4 | 75.7 | 113
N#CC[C@H](C1CCCC1)n1cc(-c2ncnc3[nH]ccc23)cn1 [ruxolitinib] + OCc1c[nH]c2ccccc12 [Indole-3-carbinol] (first compound 1 µM, partner dose 0.8 µM) | 98.3 | 94 | 93.8 | 96.7 | 95.5 | 100 | 91.5 | 100
Cc1cc(Nc2cc(N3CCN(C)CC3)nc(Sc3ccc(NC(=O)C4CC4)cc3)n2)n[nH]1 [Tozasertib] + CC1(C)CCC(c2ccc(Cl)cc2)=C(CN2CCN(c3ccc(C(=O)NS(=O)(=O)c4ccc(N[C@H](CCN5CCOCC5)CSc5ccccc5)c(S(=O)(=O)C(F)(F)F)c4)cc3)CC2)C1 [ABT263] (first compound 0.006 µM, partner dose 0.4 µM) | 94.9 | 59.2 | 46.5 | 53.4 | 86.1 | 94.3 | 61.1 | 79.3
N#CC[C@H](C1CCCC1)n1cc(-c2ncnc3[nH]ccc23)cn1 [ruxolitinib] + Nc1nc(F)nc2c1ncn2[C@@H]1O[C@H](CO)[C@@H](O)[C@@H]1O [fludarabine] (first compound 1 µM, partner dose 0.2 µM) | 102 | 43 | 105 | 94.8 | 93.7 | 10.3 | 28.9 | 96.2
CC[C@]1(O)C[C@H]2CN(CCc3c([nH]c4ccccc34)[C@@](C(=O)OC)(c3cc4c(cc3OC)N(C=O)[C@H]3[C@@](O)(C(=O)OC)[C@H](OC(C)=O)[C@]5(CC)C=CCN6CC[C@]43[C@@H]65)C2)C1 [vincristine] + O=c1[nH]nc(Sc2ncc([N+](=O)[O-])s2)n1-c1ccc2c(c1)OCCO2 [BI78D3] (first compound 0.0001 µM, partner dose 0.2 µM) | 89.2 | 82.9 | 74.7 | 102 | 103 | 102 | 62.2 | 71.9
N#CC[C@H](C1CCCC1)n1cc(-c2ncnc3[nH]ccc23)cn1 [ruxolitinib] + C[C@]1(O)C[C@@H](c2nc(-c3ccc4ccc(-c5ccccc5)nc4c3)c3c(N)nccn32)C1 [OSI906] (first compound 1 µM, partner dose 0.4 µM) | 107 | 93.8 | 88.6 | 109 | 102 | 95.2 | 90.2 | 108
CC[C@]1(O)C[C@H]2CN(CCc3c([nH]c4ccccc34)[C@@](C(=O)OC)(c3cc4c(cc3OC)N(C=O)[C@H]3[C@@](O)(C(=O)OC)[C@H](OC(C)=O)[C@]5(CC)C=CCN6CC[C@]43[C@@H]65)C2)C1 [vincristine] + CS(=O)(=O)c1ccc(C(=O)Nc2ccc(Cl)c(-c3ccccn3)c2)c(Cl)c1 [vismodegib] (first compound 0.0001 µM, partner dose 1 µM) | 95.5 | 81.9 | 47.3 | 87.8 | 95 | 99.5 | 67.1 | 67.8
CC[C@]1(O)C[C@H]2CN(CCc3c([nH]c4ccccc34)[C@@](C(=O)OC)(c3cc4c(cc3OC)N(C=O)[C@H]3[C@@](O)(C(=O)OC)[C@H](OC(C)=O)[C@]5(CC)C=CCN6CC[C@]43[C@@H]65)C2)C1 [vincristine] + C[C@@H](N)c1ccc(C(=O)Nc2ccnc3[nH]ccc23)cc1 [RKI983] (first compound 0.0001 µM, partner dose 0.4 µM) | 69.1 | 60 | 46.9 | 59.2 | 56.3 | 76.2 | 50.6 | 42.7
N#CC[C@H](C1CCCC1)n1cc(-c2ncnc3[nH]ccc23)cn1 [ruxolitinib] + Nc1ccn([C@@H]2O[C@H](CO)[C@@H](O)C2(F)F)c(=O)n1 [gemcitabine] (first compound 1 µM, partner dose 0.0004 µM) | 97.6 | 82.3 | 80.4 | 63.4 | 106 | 106 | 96.8 | 87.4
Cc1cc(Nc2cc(N3CCN(C)CC3)nc(Sc3ccc(NC(=O)C4CC4)cc3)n2)n[nH]1 [Tozasertib] + Nc1ccn([C@@H]2O[C@H](CO)[C@@H](O)C2(F)F)c(=O)n1 [gemcitabine] (first compound 0.006 µM, partner dose 0.0004 µM) | 92.6 | 89.3 | 96.5 | 98.2 | 90.4 | 102 | 94.2 | 115
CC[C@]1(O)C[C@H]2CN(CCc3c([nH]c4ccccc34)[C@@](C(=O)OC)(c3cc4c(cc3OC)N(C=O)[C@H]3[C@@](O)(C(=O)OC)[C@H](OC(C)=O)[C@]5(CC)C=CCN6CC[C@]43[C@@H]65)C2)C1 [vincristine] + C=CCNC1=C2C[C@@H](C)C[C@H](OC)[C@H](O)[C@@H](C)/C=C(\C)[C@H](OC(N)=O)[C@@H](OC)/C=C\C=C(/C)C(=O)NC(=CC1=O)C2=O [Tanespimycin] (first compound 0.0001 µM, partner dose 0.002 µM) | 104 | 83.4 | 41.4 | 75.3 | 95.4 | 95.9 | 53.3 | 73
Cc1cc(Nc2cc(N3CCN(C)CC3)nc(Sc3ccc(NC(=O)C4CC4)cc3)n2)n[nH]1 [Tozasertib] + CC(=O)c1c(C)c2cnc(Nc3ccc(N4CCNCC4)cn3)nc2n(C2CCCC2)c1=O [palbociclib] (first compound 0.006 µM, partner dose 0.04 µM) | 87 | 81.2 | 87.3 | 80.3 | 67.2 | 70.8 | 65 | 64.3
Cc1cc(Nc2cc(N3CCN(C)CC3)nc(Sc3ccc(NC(=O)C4CC4)cc3)n2)n[nH]1 [Tozasertib] + C[C@@H](Oc1cc(-c2cnn(C3CCNCC3)c2)cnc1N)c1c(Cl)ccc(F)c1Cl [Crizotinib] (first compound 0.006 µM, partner dose 0.2 µM) | 104 | 92 | 100 | 83.6 | 102 | 96.6 | 89.2 | 97
Cc1cc(Nc2cc(N3CCN(C)CC3)nc(Sc3ccc(NC(=O)C4CC4)cc3)n2)n[nH]1 [Tozasertib] + Cc1cn(-c2cc(NC(=O)c3ccc(C)c(Nc4nccc(-c5cccnc5)n4)c3)cc(C(F)(F)F)c2)cn1 [nilotinib] (first compound 0.006 µM, partner dose 0.2 µM) | 94.9 | 89 | 74 | 92.6 | 99.3 | 97.9 | 94.2 | 91
Cc1cc(Nc2cc(N3CCN(C)CC3)nc(Sc3ccc(NC(=O)C4CC4)cc3)n2)n[nH]1 [Tozasertib] + NC1(c2ccc(-c3nc4ccn5c(=O)[nH]nc5c4cc3-c3ccccc3)cc2)CCC1 [MK2206] (first compound 0.006 µM, partner dose 0.4 µM) | 96.1 | 74.3 | 78 | 95.7 | 93.6 | 89.5 | 92.2 | 75.5
Cc1cc(Nc2cc(N3CCN(C)CC3)nc(Sc3ccc(NC(=O)C4CC4)cc3)n2)n[nH]1 [Tozasertib] + Cn1c(Nc2ccc(C(F)(F)F)cc2)nc2cc(Oc3ccnc(-c4ncc(C(F)(F)F)[nH]4)c3)ccc21 [CHIR265] (first compound 0.006 µM, partner dose 0.08 µM) | 69.1 | 67.4 | 55.9 | 70.3 | 40.2 | 71.6 | 50.2 | 51.3
Cc1cc(Nc2cc(N3CCN(C)CC3)nc(Sc3ccc(NC(=O)C4CC4)cc3)n2)n[nH]1 [Tozasertib] + C[C@]1(c2nc3c(C(N)=O)cccc3[nH]2)CCCN1 [Veliparib] (first compound 0.006 µM, partner dose 1.4 µM) | 94.9 | 88.5 | 80.8 | 88.1 | 74.2 | 85.2 | 85 | 81.9
Cc1cc(Nc2cc(N3CCN(C)CC3)nc(Sc3ccc(NC(=O)C4CC4)cc3)n2)n[nH]1 [Tozasertib] + NC(=O)c1ccc(N(C(N)=O)c2c(F)cccc2F)nc1-c1ccc(F)cc1F [VX702] (first compound 0.006 µM, partner dose 0.4 µM) | 103 | 89.5 | 84.5 | 91.8 | 79.8 | 97.1 | 91.3 | 105
